The antibiotic and cytotoxicity screens of Wong et al. (2023)
This is one part of the list.

Legend:
[1] = system: HSkMC (human skeletal muscle cells); assay: cytotoxicity call (relative viability < 0.9); settings: 10 µM
[2] = system: HepG2; assay: cytotoxicity call (relative viability < 0.9); settings: 10 µM
[3] = system: S. aureus RN4220; assay: growth inhibition call (relative growth <= 0.2); settings: 50 µM

Structure (SMILES) | cytotoxicity call [1] | cytotoxicity call [2] | growth inhibition call [3]
COCC(=O)Nc1ccc2c(c1)OC[C@H](C)N(Cc1ccccc1F)C[C@@H](C)[C@@H](OC)CN(C)C2=O | inactive | inactive | inactive
COc1ccc(N2CCCS2(=O)=O)cc1N | inactive | inactive | inactive
CC1(C)C(=O)C2CC3(O)C4=CC(=O)OC(c5ccoc5)C4(C)CCC3C(C)(C2=O)C1CC(=O)O (stereo not given) | inactive | inactive | inactive
COc1ccc(S(=O)(=O)N[C@@H]2C=C[C@@H](CC(=O)N3CCN(c4ccccc4)CC3)O[C@H]2CO)cc1 | inactive | inactive | inactive
CC(=NNC(=O)c1nnn(-c2nonc2N)c1CN1CCC(C)CC1)c1cccc(Br)c1 | inactive | inactive | inactive
C[C@H](CO)N1C[C@H](C)[C@H](CN(C)Cc2ccc(Oc3ccccc3)cc2)Oc2ccc(NC(=O)Nc3ccccc3)cc2C1=O | inactive | inactive | inactive
Cc1noc(C)c1S(=O)(=O)Nc1ccc2c(c1)C(=O)N([C@H](C)CO)C[C@H](C)[C@@H](CN(C)Cc1ccc(C(F)(F)F)cc1)OCCCC[C@@H](C)O2 | inactive | inactive | inactive
Cc1noc(C)c1S(=O)(=O)Nc1cccc2c1O[C@H](CN(C)S(=O)(=O)c1ccccc1)[C@H](C)CN([C@@H](C)CO)C2=O | inactive | inactive | inactive
C[C@H]1CN([C@@H](C)CO)C(=O)c2cccc(NC(=O)Nc3ccccc3)c2O[C@@H]1CN(C)S(=O)(=O)c1cn(C)cn1 | inactive | inactive | inactive
C[C@@H]1CN([C@@H](C)CO)S(=O)(=O)c2ccc(C#Cc3ccccc3)cc2O[C@H]1CN(C)C(=O)CN(C)C | inactive | inactive | inactive
C[C@H](CO)N1C[C@H](C)[C@H](CN(C)S(C)(=O)=O)OCCCC[C@H](C)Oc2ccc(N(C)C)cc2C1=O | inactive | inactive | inactive
Cc1noc(C)c1NC(=O)Nc1cccc2c1O[C@H](CN(C)Cc1ccc(C(F)(F)F)cc1)[C@@H](C)CN([C@H](C)CO)C2=O | inactive | inactive | inactive
CC(C)NC(=O)N(C)C[C@H]1OCCCC[C@H](C)Oc2ccc(NS(=O)(=O)c3cn(C)cn3)cc2C(=O)N([C@H](C)CO)C[C@@H]1C | inactive | inactive | inactive
COc1ccc(S(=O)(=O)N(C)C[C@@H]2Oc3ccc(N(C)C)cc3CC(=O)N([C@H](C)CO)C[C@H]2C)cc1 | inactive | inactive | inactive
CC1C=CC=CC=CC=CC=CC=CC=CC(OC2OC(C)C(O)C(N)C2O)CC(O)C(C(=O)O)C(O)CC(=O)CC(O)CC(O)CC(O)CC(=O)CCCC(=O)CC(=O)OC1C(C)CC(C)C(O)CC(=O)c1ccc(N)cc1 (stereo not given) | active | active | inactive
C[C@@H]1CN([C@H](C)CO)C(=O)c2cc(NS(=O)(=O)c3cccs3)ccc2O[C@@H](C)CCCCO[C@@H]1CN(C)S(=O)(=O)c1ccc(Cl)cc1 | inactive | active | inactive
O=C(C[C@H]1C[C@H]2c3cc(NC(=O)NC4CCCC4)ccc3O[C@H]2[C@@H](CO)O1)NCc1ccc2c(c1)OCO2 | inactive | inactive | inactive
CC(C)C#Cc1ccc2c(c1)O[C@@H](CN(C)C(=O)Cc1ccccn1)[C@H](C)CN([C@@H](C)CO)S2(=O)=O | inactive | inactive | inactive
Cc1ccc(S(=O)(=O)Nc2ccc3c(c2)C(=O)N([C@@H](C)CO)C[C@H](C)[C@@H](CN(C)C(=O)Cc2ccccc2)OCCCC[C@@H](C)O3)cc1 | inactive | active | inactive
O=C(COc1ccc(S(=O)(=O)N2CCOCC2)cc1)NCCCn1ccnc1 | inactive | inactive | inactive
C[C@H]1CN([C@@H](C)CO)C(=O)c2cc(NC(=O)Nc3cccc4ccccc34)ccc2O[C@H]1CN(C)Cc1ccc2c(c1)OCO2 | inactive | inactive | inactive
COc1ccc(COC[C@]23NC(=S)N[C@H](c4ccccc4O2)[C@@H]3CO[Si](C)(C)C(C)(C)C)cc1 | inactive | inactive | inactive
C[C@@H]1CN([C@@H](C)CO)C(=O)c2cc(NC(=O)Nc3ccc(C(F)(F)F)cc3)ccc2O[C@H]1CN(C)Cc1ccc(C(=O)O)cc1 | inactive | inactive | inactive
NCC(=O)NC1CCCCC1 | inactive | inactive | inactive
COc1cccc(S(=O)(=O)Nc2ccc3c(c2)[C@@H]2C[C@H](CC(=O)NCC(F)(F)F)O[C@@H](CO)[C@@H]2O3)c1 | inactive | inactive | inactive
